This passage reports binding signal results from PMC12136788.

T1: UNK ZnF1-6 (called full-length) (human, UniProt Q9C0B0 30-357)
T1 sequence: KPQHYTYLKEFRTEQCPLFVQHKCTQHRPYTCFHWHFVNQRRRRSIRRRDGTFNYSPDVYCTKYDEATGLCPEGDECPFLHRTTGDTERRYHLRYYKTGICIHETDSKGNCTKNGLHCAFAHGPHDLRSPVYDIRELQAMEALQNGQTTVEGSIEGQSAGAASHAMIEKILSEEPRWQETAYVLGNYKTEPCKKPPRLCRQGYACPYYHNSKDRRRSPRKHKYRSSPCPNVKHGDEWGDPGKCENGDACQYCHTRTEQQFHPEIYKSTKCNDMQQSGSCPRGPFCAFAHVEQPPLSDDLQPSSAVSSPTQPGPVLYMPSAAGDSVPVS

B1: chr4:87458373:87458474:+|3pUTR|ENSG00000170502|unk|total|mutant (ssRNA)
RNA: GGGAGUUCUACAGUCCGACGAUCUCCCUCCCGCUCCCCAUCUUCUGAGGCCUGAAGGAUGUUCCUGCCACAUCAAACUCCUUCCGGCAGAGUACCGCCACUGGAUGUACCGUUUAAUGUUUCAUCUGAUUUUUCUUUAAAUUACAACAGAGGAUUGAGCAUCA
B2: chr5:38883864:38883977:+|CDS|ENSG00000145623|unk|total|mutant (ssRNA)
RNA: GGGAGUUCUACAGUCCGACGAUCGUUUUCCCUAAAGAUAAGCUGGUGGAAGAAGGCACCAAUGUUACCAUUUGUUACGUUUCCCGGAACAUUCAAAAUAAUGUAUCCUGUUAUUUGGAAGGGAAACAGAUUCAUGGAGAACAACAACAGAGGAUUGAGCAUCA
B3: chr15:38470281:38470388:+|CDS|ENSG00000171262|unk|FALSE|unique (ssRNA)
RNA: GGGAGUUCUACAGUCCGACGAUCCUUCAAGCUUCACAGAUAUUACAGAACAAGAAACAUAAAAAUUCUCAAUUAGAUAAAAAUAGUGAAGUUUAUCAGGAAGUUCAAGCUAUGUUUGAUACACUUGGUAUACCCAAGUCAACACAACAGAGGAUUGAGCAUCA
B4: ENSG00000107863:be:win_2201|CDS|ENSG00000107863|bound_else_gene|NA|bound_elsewhere_windowed (ssRNA)
RNA: GGGAGUUCUACAGUCCGACGAUCCUGUCAUCCUAAGGGAAAAACCUCCAUCUGGACGCCAGACACCGCAGCCUUUAAGGCAUCAGUCUUACAUCUUGGCAGUAAAUGACCAGGAGACCGGGUCAGACACUACCUGCUGGCUGCCAACAGAGGAUUGAGCAUCA
B5: chr17:3714672:3714773:-|3pUTR|ENSG00000083457|msi1_unk|FALSE|overlapping (ssRNA)
RNA: GGGAGUUCUACAGUCCGACGAUCUUUGCAUUACUUUUUCCUUCAGGAUGAUCUAGAGCAGCAUGGAGCUGUUGGUAGAAUAUUAGUUUUUAACCAUACAUUGUCCCAAAAGUGUCUGUGCAUUGUGCAAAAAGUAAACUUAGGCAACAGAGGAUUGAGCAUCA
B6: chr1:153626309:153626462:-|CDS|ENSG00000189171|unk|total|mutant (ssRNA)
RNA: GGGAGUUCUACAGUCCGACGAUCUCCAUUGAGACCGUGGUCACCACCUUCUUCACCUUUGCAAGGCAGGAGGGCCGGAAGGACCGCCUCAGCGUCAACGAGUUCAAAGAGCUGGUUACCCAGCAGUUGCCCCAUCUGCUCAAGCAACAGAGGAUUGAGCAUCA
B7: ENSG00000107863:be:win_6551|3pUTR|ENSG00000107863|bound_else_gene|NA|bound_elsewhere_windowed (ssRNA)
RNA: GGGAGUUCUACAGUCCGACGAUCUGGAUGGAACUGGCUUCUUUAUCGAGAAGAAUAUAAUUCUGCAUGAGGACUUAAUGAAUCCAAACCUGUGUCAUGCCUGUGUGCAUACCCAAUUAAACACUGGAAAUAAAAAUUGUUUUGCAACAGAGGAUUGAGCAUCA
B8: chr6:142075650:142076049:-|CDS|ENSG00000135577|control|control|control (ssRNA)
RNA: GGGAGUUCUACAGUCCGACGAUCGUAUCGGUCUUUCAACUAUAAUGAGAUUGAUCCAUCUCUAGGCCACAUGAUUGUCACCUUAGUUGCCCGGGUUCUCAGUUUUGGCAAUUCUUGUGUCAACCCAUUUGCUCUUUACCUACUCAACAGAGGAUUGAGCAUCA
B9: chr2:130346496:130346597:+|3pUTR|ENSG00000136718|unk|total|mutant (ssRNA)
RNA: GGGAGUUCUACAGUCCGACGAUCACUCAGUCAGGACAUGGACUUGGAACUCAGGAUGGGGCUGUCACCGACAGACCCACCAGCCGGAACUGUCACAGAAUGGCCUGCUGAACUGGGAUGUGGAACUGUGGCGGGUGGAGAGGUCAACAGAGGAUUGAGCAUCA
B10: chr2:219567793:219567894:-|CDS|ENSG00000124006|msi1|FALSE|unique (ssRNA)
RNA: GGGAGUUCUACAGUCCGACGAUCCCUGCCCCGGAAGCUCGACGUCCUGGAAGGAGAGAAUGCUGUGCUGCUAGUGGAAACUCUAGAGGCCGGGGUCGAGGGACGCUGGAGCCGUGAUGGGGAGGAGCUGCCGGUCAUCUGCCACAACAGAGGAUUGAGCAUCA
B11: chr16:30603633:30603734:-|3pUTR|ENSG00000156853|unk|FALSE|unique (ssRNA)
RNA: GGGAGUUCUACAGUCCGACGAUCGUUAAGUACCACAUUCUCCUCUAAACCUUGCCUACGACAUGUUUAAUACUUCAUCUACAUAGCAGCCCUUCAGAUAAUCACAACCACUUUGCCCCCAAGUUUUCAGGUUAAGUAGCAUGACAACAGAGGAUUGAGCAUCA
B12: chr22:37084134:37084404:-|CDS|ENSG00000187045|control|control|control (ssRNA)
RNA: GGGAGUUCUACAGUCCGACGAUCCUUCCUCUCCUCCCUCUGGCUUCCUUUCCUCCCUCCCCCUCCCUCUCUUCCCUCCUCAAUAGUGACCCCCUCAUUGGAAGCCCAAGUCCCCAAUCUCAGAGGGGCAGCAAGGGGAGCGAGCAACAGAGGAUUGAGCAUCA
B13: chr6:41683977:41685078:-|three_prime_utr|ENSG00000112561|control|control|control (ssRNA)
RNA: GGGAGUUCUACAGUCCGACGAUCUCCCCGUCCGGCAUGAACAUGGCUGAGCUGGCCCAGCAGGUGGUGAAGCAGGAGCUGCCUAGCGAAGAGGGCCCAGGGGAGGCCCUGAUGCUGGGGGCUGAGGUCCCUGACCCUGAGCCACAACAGAGGAUUGAGCAUCA
B14: chr11:10770493:10770605:+|CDS|ENSG00000198730|unk|total|mutant (ssRNA)
RNA: GGGAGUUCUACAGUCCGACGAUCACAUGUGGCACCCAGUGAUACAGUUCUUAUGUUUAAUGUGGCCUUGGUCCUGCAAAGAUCCGCUACCUCUGUCCUGAAAGAUGAAAAAAGUAAUCUGAAGGAAGUACUUAAUGCUGUGAACAACAGAGGAUUGAGCAUCA
B15: chr1:155884367:155884468:+|3pUTR|ENSG00000132718|msi1|total|mutant (ssRNA)
RNA: GGGAGUUCUACAGUCCGACGAUCUGGGUCUACUGAGCAGUGGGUGCUGAGGUGACAGGGGAGGAACCAGUUGUUCUGCCGCCCCGGAACUGCCUCAGUGUCUUUGCCAGAAAAAGGCAAAGAGGCGGACAGUGCAGGGCUCCUCAACAGAGGAUUGAGCAUCA
B16: chr3:44446857:44446958:-|CDS|ENSG00000185219|msi1|total|mutant (ssRNA)
RNA: GGGAGUUCUACAGUCCGACGAUCGGGAGACAUACCCUUUCCAGUCACCAGAGGAAACACACCAGAGCAGCACAGGCUGAACGCCGCCCGCCUGCACGGUCUUCCUCUCAGGACACAAAGUUGAGAUUACAGAAGCUAAAACCACAACAGAGGAUUGAGCAUCA
B17: chrX:46853785:46853899:+|CDS|ENSG00000102218|unk|FALSE|unique (ssRNA)
RNA: GGGAGUUCUACAGUCCGACGAUCCAUCAUUGAGUCUUCCUCAAAUAUCAAAUUUGGAUGUUUUCAAUGGUACUAUCCUGAAUUAGCUUUCCAGUUCAAAGAUGCAGGGCUAAGUAUCUUCAACAAUACAUGGAGUAACAUUCACAACAGAGGAUUGAGCAUCA
B18: chr2:85351679:85351862:-|CDS|ENSG00000042445|control|control|control (ssRNA)
RNA: GGGAGUUCUACAGUCCGACGAUCGAAGCUGGAUGUGGUGGUAAUUGGCAGUGGCUUUGGGGGCCUGGCUGCAGCUGCAAUUCUAGCUAAAGCUGGCAAGCGAGUCCUGGUGCUGGAACAACAUACCAAGGCAGGGGGCUGCUGCAACAGAGGAUUGAGCAUCA
B19: ENSG00000070961:be:win_5901|3pUTR|ENSG00000070961|bound_else_gene|NA|bound_elsewhere_windowed (ssRNA)
RNA: GGGAGUUCUACAGUCCGACGAUCGUAUUGAGCUUUUACAGUAUUCAUUUUUCAACUCAAGGCAAUGGCUUUCUACACCAACUCUAAUCCAUAAACGGGUCUUAUGACAUCUAUGAAGUAGUAGCAAGACAUGCUUAGUGUGUACAACAGAGGAUUGAGCAUCA
B20: chr15:48878618:48878734:+|CDS|ENSG00000255302|unk|FALSE|bound_elsewhere (ssRNA)
RNA: GGGAGUUCUACAGUCCGACGAUCAGAACCAGCCCUGGAUGGCGGGUUUCAGAUGCAUUAUGAGAAGACCCCGUUUGAUCAGUUAGCUUUUAUCGAAGAGCUUUUUUCACUGAUGGUUGUCAAUCGUCUGACCGAAGAACUCGGCAACAGAGGAUUGAGCAUCA
B21: chr9:99150529:99150630:+|3pUTR|ENSG00000106799|msi1|FALSE|unique (ssRNA)
RNA: GGGAGUUCUACAGUCCGACGAUCCAUUUGUUAUGUAUGUAGGAGUAAACGUUCGGUGGAUCCUCUGUCUUUGUAACUGAGGUUAGAGCUAGUGUGGUUUUGAGGUCUCACUACACUUUGAGGAAGGCAGCUUUUAAUUCAGUGCAACAGAGGAUUGAGCAUCA
B22: chr1:156672197:156672316:-|CDS|ENSG00000132688|unk|FALSE|bound_elsewhere (ssRNA)
RNA: GGGAGUUCUACAGUCCGACGAUCGACAUUGCAAUCCCUGCAAAAGGAGAAUCAAGAACUAAUGAAAUCUCUUGAAGGUAAUCUAGAGACAUUUUUAUUUCCAGGAACGGAAAAUCAAGAAUUAGUAAGUUCUCUGCAAGAGAACAACAGAGGAUUGAGCAUCA

The list shows a part of the results.

The target of this assay is T1, UNK ZnF1-6 (called full-length). The assay can be described thus: nsRBNS (natural sequence RNA bind-n-seq); RBNS binding buffer (assumed for nsRBNS): 25 mM Tris pH 7.5, 150 mM KCl, 3 mM MgCl2, 0.01% Triton X-100, 500 ug/ml BSA, 20 U/ml SUPERase-In, 4 C; UNK is unkempt and MSI1 is Musashi-1; names of the RNAs are library labels; protein concentration not given here; high values mean tight binding.
In turn, B1 had a binding signal of 0.859 enrichment R. The figure for B2 is 0.291 enrichment R. Under B3 stands 0.862 enrichment R; under B4, 0.44 enrichment R; under B5, 0.861 enrichment R. Under B6 stands 0.514 enrichment R; under B7, 0.294 enrichment R; under B8, 0.405 enrichment R. Consider B9, for which the binding signal stood at 1.17 enrichment R. For the molecule B10, the binding signal came to 0.702 enrichment R. Under B11 stands 0.688 enrichment R; under B12, 1.26 enrichment R; under B13, 0.619 enrichment R.

B14 displayed a binding signal of 0.928 enrichment R. The figure for B15 is 0.568 enrichment R; for B16 it is 0.572 enrichment R. Under B17 stands 0.443 enrichment R; under B18, 0.991 enrichment R; under B19, 0.631 enrichment R. Under B20 stands 0.914 enrichment R; under B21, 0.659 enrichment R; under B22, 0.389 enrichment R.
